Read counts are not given, so values of variants with three or more changes are uncertain.

Sequences and labels used below:
B1: CPEB3 Ribozyme (parent)
chain: UAACAGGGGGCCACAGCAGAAGCGUUCACGUCGCAGCCCCUGUCAGAUUCUGGUGAAUCUGCGAAUUCUGCUGUAUAUCUC

Variants of B1 are the subject of the data set. The data set is described as follows: self-cleavage, relative activity (ratio to wild type); higher = more cleavage; in vitro, sequencing. In a few lines: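 Libraries of CPEB3 self-cleaving ribozyme mutants came from rounds of error-prone PCR and carried barcodes, which DNA sequencing matched to variants. In vitro transcription used T7 RNA polymerase at 37°C for 5 hours, with a further 15 min in DNase I before EDTA stopped the reaction; the ribozymes cleaved during both steps. The RNA was reverse transcribed with template switching and sequenced on Illumina. Relative activity is the cleaved/total read fraction of a variant divided by that of the unmutated ribozyme, averaged over three batches with at least 5 reads.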
With A5U A13G C23G U26C U49C U60C C62G, the self-cleavage came out at 0.04.
In the case of A5U C23A A35G C44G U48C U74C U78C it was 0.05; in that of A5U A28U U31A A45U A56G U60A U72C, 0.65; in that of A5G G30C U72A, 0.11.
Take A5G U26C U49C U78A: the self-cleavage is 0.24.
For A5U A15G C44A U67C U74C the value was 0.11; for A5G U25C C44A U69A, 0.17; for A5G G16A A35U U76C U80C, 0.11.
In the case of A5G U41A U80C it was 0.6; in that of A5U A13G C17A U41C, 0.1.
In the case of A5U A13G A21G C34A A47G U58C U72C, the self-cleavage came out at 0.42.
As to A5U A65G U74C, the self-cleavage amounted to 0.58.
For A5U C17G U25C U66A U72C C79A the value was 0.11; for A5G G9A A18U A20G U67A U69C C71U, 0.18; for A5G G19U U78C, 0.23.
For A5U A18G A45G C62U the value was 0.1; for A5G U58C U78A, 0.41.
As for A5G G6C U43C A56G A64G U69A, the self-cleavage is 0.05.
In the case of A5G C32U U43A A57G it was 0.1.
In the case of A5U A13G G19U C40U C44G A65U it was 0.06; in that of A5G U26C U31C G52U, 0.12.
In the case of A5U A13U U26C U72C it was 0.67; in that of A5U G6A U76C, 0.23.
In the case of A5U A57G C68U, the self-cleavage was 0.86.
For A5G U41C A64G the value was 0.35.
Take A5U G8A C14A A75G: the self-cleavage is 0.16.
As to A5U A13U A18U U31A U41A, the self-cleavage is 0.24.
As to A5U C12U U26A A65U U80C, the self-cleavage worked out at 0.19.
For the variant A5G U31C G46A U66A A75U U76A, the self-cleavage turned out to be 0.14.
Turning to A5G U26C U43A U60C U67C, the self-cleavage came out at 0.33.
Regarding A5G U48C U54A, the self-cleavage came to 0.38.
As to A5U A15G A21G, the self-cleavage was 0.7.
In the case of A5G U25C C34U A65G it was 0.09; in that of A5U C14U A15U A28G U31C U43A, 0.35.
For A5U A20G A75U the value was 0.76; for A5G G9A C23U, 0.64.
For A5G U31C U67A U72G U80C the value was 0.18; for A5G G7C A18U G19A A28G U58C U80G, 0.07.
Turning to A5G G10A C17U, the self-cleavage was found to be 0.49.
Take A5U A21C A35G U60A A65C U67A U72A: the self-cleavage stood at 0.04.
For A5U A18U U31C C34U U41A the value was 0.12; for A5U A13U G30A U41A A56U, 0.08; for A5G G53U C79U, 0.89.
For A5U A20U G24U A28U A57G the value was 0.
In the case of A5G U41A U49C U69A U76A A77G it was 0.02; in that of A5U C17G U43C A57G, 0.14; in that of A5G U43A U51A A64G G70U A75U, 0.22.
On to A5U A47G U66G U67C U72C, for which the self-cleavage came to 0.26.
For A5U A18G U41A U72C U80C the value was 0.44.
In the case of A5G U26A U43A A57G C68U it was 0.26; in that of A5G G10A U48C U49C U54C, 0.04; in that of A5U A20U G63A, 0.46.
For A5U C62A U69A C71U the value was 0.32; for A5G U26C A47U U80C, 0.52; for A5G G8U A45G A64G U66C, 0.23.
With A5U C44G U72A, the self-cleavage was 0.44.
For A5G U49C U66C G70A U78A the value was 0.19; for A5U A15G A64G U76A, 0.65.
In the case of A5G G7A U69A U72C U74C it was 0.09; in that of A5U C62U A64U U80C, 0.3.
Regarding A5U A64U U80C, the self-cleavage amounted to 0.23.
For A5G U54A U60C U67A A75G the value was 0.09.
For A5G U60C U74A the value was 0.22; for A5G U31A A57U G70C, 0.1; for A5U G8C A35G U48G A57G U69C U78C, 0.07.
As for A5G G46A G55A U74C, the self-cleavage turned out to be 0.3.
For A5U A13U U31C U43C A56G A64U the value was 0.09; for A5U C11G U43A U76C, 0.73.
For A5U G8U U41A A57G U58C U69C U76A the value was 0.1.
In the case of A5U A13G U26C C40U C71U, the self-cleavage was 0.13.
In the case of A5U A45G U80A it was 0.7; in that of A5G C59U A77G C81U, 0.45; in that of A5U A13G U26G C39U A56G U60A U69C, 0.06.
For A5G U41C G70A U78C the value was 0.21; for A5G G30C A35G A64G, 0.08; for A5G U31A U51A U60C, 0.1.
As for A5U A28U U41A A47U A75U A77G, the self-cleavage came to 0.2.
For A5U A20G U26C A45G A56U the value was 0.23; for A5U C44A A45G U48C U78C U80C, 0.09.
Take A5G U26A G30U: the self-cleavage amounted to 0.11.
For A5U G7U U51G A64G the value was 0.12; for A5G G9A A57G U60A, 0.07; for A5G G36C A64G U69A U72C, 0.34.
As for A5G U41C A47G A57G, the self-cleavage was found to be 0.31.
As for A5G U43G A45G, the self-cleavage is 0.5.
For A5G G19A A21G U41A A45U A64U A75G the value was 0.05; for A5U G10U A28G A65G U69A U72G U74A, 0.03; for A5U A20G U41C U51A, 1.04.
Consider A5U G10C U31A U67A, for which the self-cleavage stood at 0.08.
On to A5U A13C U31C A45G U49C A57U, for which the self-cleavage was 0.41.
In the case of A5U A15G U43C U78C it was 0.43; in that of A5U A15G A18G U49A C50U U54G, 0.09.
For A5U A18G U26A G30U U69A the value was 0.05; for A5U C11A A15G U31A A45G G53A, 0.09.
In the case of A5G G10U A13G C29A A57G A75G it was 0.07.
Consider A5G G6A A13C, for which the self-cleavage was determined as 0.17.
For the variant A5U A20G U60C U76C, the self-cleavage worked out at 0.6.
For A5U A20G U41C U67C A77U, the self-cleavage is 0.93.
In the case of A5G G30A U41A G53A U60A it was 0.12; in that of A5U A15G U48C, 0.9; in that of A5G U49C U51A U78G, 0.43.
A5U C12U A18U U43C: the self-cleavage stood at 0.34.
For A5G C34G U78C the value was 0.36.
For A5G G10U U25A U43C A45U U48A the value was 0.04; for A5G U26A A57G A65G U67C, 0.15.
For the variant A5U G10A U48C, the self-cleavage turned out to be 0.21.
In the case of A5G G8A A35G A56U A64U U66C it was 0.05; in that of A5U A47G G53A U80C, 1.09.
In the case of A5U A13U A21G A45G U54A U67C U69C it was 0.16.
For A5G U31C C50U the value was 0.67; for A5U A18U A28G U41C A57G U67C, 0.07.
In the case of A5G G9A A20G A35G A45C U69A, the self-cleavage was 0.09.
In the case of A5G U26C A57G U69C it was 0.3; in that of A5U A20G G33A U49G, 0.24; in that of A5U A18G U67A U72C, 0.42.
For A5U C11A A18G C34U C40U U60A U69C the value was 0.13.
In the case of A5G G10A C68U U80C it was 0.38; in that of A5U C12U G33U U67C, 0.12.
With A5U G19U U25G U41C A64U, the self-cleavage was found to be 0.34.
For A5G U48C U69G the value was 0.11.
In the case of A5U A13G U76A U78C it was 1.19; in that of A5G G8A A13G G33A G52A U60C U74A, 0.07; in that of A5U G9A C39U U72C, 0.21.
In the case of A5G G24A A45U it was 0.38; in that of A5G G8U A15G U43G U49A U72C, 0.06; in that of A5U A28G U54C U66C U78A, 0.08.
As for A5U A13U U41C, the self-cleavage is 1.12.
For A5U G9A G33A U43C U80C the value was 0.18; for A5G U26C U80A, 0.58.
Take A5G U49A A57G U66C: the self-cleavage turned out to be 0.19.
Take A5G G24A A56G: the self-cleavage worked out at 0.4.
In the case of A5U A13G A18G G55A U67C U80C it was 0.08; in that of A5G U48C G52A U60C A64U U72A U80C, 0.09; in that of A5U A18G A28G A35U U67C, 0.15.
Turning to A5U A35U U58C G61A, the self-cleavage is 0.09.
For A5U A18G U25C A35G U74C the value was 0.13; for A5G U26C A56G, 0.54; for A5U G10A A15G U54A, 0.64.
In the case of A5U G10A A13C U51C U54C it was 0.23; in that of A5G U26C C32A U48C C68U A77G U78A, 0.1; in that of A5U A47G A57U, 0.43.
For the variant A5G G8A C14U U31C, the self-cleavage turned out to be 0.25.
In the case of A5U A35G U49C U54G A64G U72C, the self-cleavage turned out to be 0.83.
Take A5G U26C U41A C50A U54G: the self-cleavage was determined as 0.1.
On to A5G U26A A28G, for which the self-cleavage is 0.14.
In the case of A5G U26C C40U U60G U67A U69A it was 0.25.
In the case of A5U A47G U51C A56U it was 0.25; in that of A5U G6A U26A U43A A47G U80A, 0.05; in that of A5U C44G U80C, 0.83.
As to A5U A18G A35G G52A U58G, the self-cleavage was found to be 0.8.
In the case of A5G G6A U26A U66C U80C it was 0.19; in that of A5U G10A A15G A35G U54G U66A, 0.2.
With A5G U26C U67C U74C, the self-cleavage was found to be 0.1.
In the case of A5G U31A A77U it was 0.7.
On to A5G G30C A35U U66C, for which the self-cleavage amounted to 0.24.
As for A5G U31C A35U A64G U78C, the self-cleavage came to 0.17.
With A5U A35G A56G, the self-cleavage was found to be 1.32.
For A5U A15U U26A A28U A45G U58C A64G the value was 0.29; for A5U A64G A65G, 0.19; for A5G U41C U54A U67C C81U, 0.2.
For A5U A13C U41G U43C U72A A77U the value was 0.09; for A5U C11G A13C U26C U51A U66C, 0.11; for A5G C38U A56G U58C U74C U76A, 0.28.
For A5U A35G A56G U78G, the self-cleavage was found to be 1.3.
A5G U41C C68A: the self-cleavage was found to be 0.31.
For A5G G6C G7A C23G U25C U49A the value was 0.28; for A5G U25C U26C A57G U66C U72C, 0.

Values taken from the RNAGym collection of RNA variant scans (doi:10.1093/nar/gkz1192).
